The source gives many values for each of these; only a part stands here.
Tested on: 766 cancer cell lines
Test: Large-scale cell-line viability measurements (766 cancer cell lines, 72 h, AUC)
Assay type: cell-based, human
Conditions: 72 hours
Description: Cell lines were treated for 72 hours with concentrations ranging from 66.4 μM-2 nM in 2-fold step dilutions.
To characterize cellular sensitivity to DNMDP further, 766 genomically characterized cancer cell lines were screened for DMNDP sensitivity at concentrations ranging from 66.4 μM to 2 nM in 2-fold dilution steps for 72 hours. From these cell lines, 22 cell lines were categorized as sensitive with a robust Z-score lower than −4, which represented multiple lineages including multiple melanoma cell lines, amongst others (Table 1).
The sensitivity of […] cancer cell lines (CCLs) was measured drawn from 23 different lineages to DNMDP. Each cell line was plated in its preferred media in white opaque 1536-plates at a density of 500 cells/well. After incubating overnight, DNMDP was added by acoustic transfer at 16 concentrations ranging from 66.4 μM-2 nM in 2-fold steps in duplicate (Labcyte Echo 555, Labcyte Inc., Sunnyvale, Calif.). After 72 hours treatment, cellular ATP levels were measured as a surrogate for viability (CELLTITERGLO®, Promega Corporation, Madison, Wis.) according to manufacturer's protocols using a ViewLux Microplate Imager (PerkinElmer, Waltham, Mass.) and normalized to background (media-only) and vehicle (DMSO)-treated control wells.
Concentration response curves were fit using nonlinear fits to 2- or 3-parameter sigmoid functions through all 16 concentrations with the low-concentration asymptote set to the DMSO-normalized value, and an optimal 8-point dose curve spanning the range of compound-sensitivity was identified. The area under the 8-point dose curve (AUC) was computed by numeric integration as a metric for sensitivity for further analysis. Similar sensitivity measurements have been obtained for a collection of 480 other compounds, enabling analyses that identify cell lines responding uniquely to DNMDP (see Broad Institute Cancer Therapeutics Response Portal, a dataset to identify comprehensively relationships between genetic and lineage features of human cancer cell lines and small-molecule sensitivities for complete list of compounds).

[1] = BECKER (CENTRAL NERVOUS SYSTEM)
[2] = BICR18 (UPPER AERODIGESTIVE TRACT)
[3] = BICR31 (UPPER AERODIGESTIVE TRACT)
[4] = BV173 (HAEMATOPOIETIC AND LYMPHOID TISSUE)
[5] = CA46 (HAEMATOPOIETIC AND LYMPHOID TISSUE)
[6] = CAL27 (UPPER AERODIGESTIVE TRACT)
[7] = CMLT1 (HAEMATOPOIETIC AND LYMPHOID TISSUE)
[8] = DBTRG05MG (CENTRAL NERVOUS SYSTEM)
[9] = EB1 (HAEMATOPOIETIC AND LYMPHOID TISSUE)
[10] = EHEB (HAEMATOPOIETIC AND LYMPHOID TISSUE)
[11] = EOL1 (HAEMATOPOIETIC AND LYMPHOID TISSUE)
[12] = F36P (HAEMATOPOIETIC AND LYMPHOID TISSUE)
[13] = GDM1 (HAEMATOPOIETIC AND LYMPHOID TISSUE)

Compound: CCN(CC)c1ccc(C2=NNC(=O)CC2C)cc1[N+](=O)[O-] (centres unmarked) [DNMDP, 6-(4-(diethylamino)-3-nitrophenyl)-5-methyl-4,5-dihydropyridazin-3(2H)-one]
- DNMDP AUC (A673 (BONE)): 6.2304
- Robust Z-score (A673 (BONE)): −0.4243
- DNMDP AUC (A2058 (SKIN)): 2.0833
- Robust Z-score (A2058 (SKIN)): −4.777
- DNMDP AUC (ASPC1 (PANCREAS)): 6.4186
- Robust Z-score (ASPC1 (PANCREAS)): −0.2268
- DNMDP AUC (BC3C (URINARY TRACT)): 6.266
- Robust Z-score (BC3C (URINARY TRACT)): −0.387
- DNMDP AUC (BCPAP (THYROID)): 5.2336
- Robust Z-score (BCPAP (THYROID)): −1.471
- DNMDP AUC [1]: 6.4161
- Robust Z-score [1]: −0.2294
- DNMDP AUC [2]: 5.6
- Robust Z-score [2]: −1.086
- DNMDP AUC [3]: 4.8356
- Robust Z-score [3]: −1.888
- DNMDP AUC [4]: 6.4448
- Robust Z-score [4]: −0.1993
- DNMDP AUC (BXPC3 (PANCREAS)): 6.2387
- Robust Z-score (BXPC3 (PANCREAS)): −0.4156
- DNMDP AUC [5]: 6.4772
- Robust Z-score [5]: −0.1653
- DNMDP AUC [6]: 6.3725
- Robust Z-score [6]: −0.2752
- DNMDP AUC (CAL51 (BREAST)): 4.0017
- Robust Z-score (CAL51 (BREAST)): −2.764
- DNMDP AUC (CAL78 (BONE)): 3.1711
- Robust Z-score (CAL78 (BONE)): −3.636
- DNMDP AUC (CAOV3 (OVARY)): 5.4646
- Robust Z-score (CAOV3 (OVARY)): −1.228
- DNMDP AUC (CAS1 (CENTRAL NERVOUS SYSTEM)): 3.9993
- Robust Z-score (CAS1 (CENTRAL NERVOUS SYSTEM)): −2.766
- DNMDP AUC (CCK81 (LARGE INTESTINE)): 6.4043
- Robust Z-score (CCK81 (LARGE INTESTINE)): −0.2418
- DNMDP AUC (CGTHW1 (THYROID)): 3.4296
- Robust Z-score (CGTHW1 (THYROID)): −3.364
- DNMDP AUC (CHAGOK1 (LUNG)): 6.5292
- Robust Z-score (CHAGOK1 (LUNG)): −0.1107
- DNMDP AUC (CHP212 (AUTONOMIC GANGLIA)): 6.5178
- Robust Z-score (CHP212 (AUTONOMIC GANGLIA)): −0.1227
- DNMDP AUC [7]: 6.3494
- Robust Z-score [7]: −0.2994
- DNMDP AUC (COLO678 (LARGE INTESTINE)): 5.0245
- Robust Z-score (COLO678 (LARGE INTESTINE)): −1.69
- DNMDP AUC (COLO741 (SKIN)): 2.7231
- Robust Z-score (COLO741 (SKIN)): −4.106
- DNMDP AUC (COLO829 (SKIN)): 5.2432
- Robust Z-score (COLO829 (SKIN)): −1.461
- DNMDP AUC (CORL105 (LUNG)): 5.5442
- Robust Z-score (CORL105 (LUNG)): −1.145
- DNMDP AUC (COV318 (OVARY)): 0.09584
- Robust Z-score (COV318 (OVARY)): −6.863
- DNMDP AUC (COV434 (OVARY)): 6.3341
- Robust Z-score (COV434 (OVARY)): −0.3155
- DNMDP AUC (COV644 (OVARY)): 5.5849
- Robust Z-score (COV644 (OVARY)): −1.102
- DNMDP AUC (CW2 (LARGE INTESTINE)): 6.4567
- Robust Z-score (CW2 (LARGE INTESTINE)): −0.1868
- DNMDP AUC [8]: 4.7415
- Robust Z-score [8]: −1.987
- DNMDP AUC (DM3 (PLEURA)): 5.2635
- Robust Z-score (DM3 (PLEURA)): −1.439
- DNMDP AUC [9]: 6.4633
- Robust Z-score [9]: −0.1799
- DNMDP AUC [10]: 6.5124
- Robust Z-score [10]: −0.1283
- DNMDP AUC [11]: 5.0478
- Robust Z-score [11]: −1.666
- DNMDP AUC [12]: 6.388
- Robust Z-score [12]: −0.2589
- DNMDP AUC (FTC238 (THYROID)): 6.2564
- Robust Z-score (FTC238 (THYROID)): −0.397
- DNMDP AUC (FU97 (STOMACH)): 6.4421
- Robust Z-score (FU97 (STOMACH)): −0.2021
- DNMDP AUC (G292CLONEA141B1 (BONE)): 1.9664
- Robust Z-score (G292CLONEA141B1 (BONE)): −4.9
- DNMDP AUC [13]: 6.4875
- Robust Z-score [13]: −0.1545
- DNMDP AUC (GMS10 (CENTRAL NERVOUS SYSTEM)): 6.4313
- Robust Z-score (GMS10 (CENTRAL NERVOUS SYSTEM)): −0.2134
- DNMDP AUC (GP2D (LARGE INTESTINE)): 6.2536
- Robust Z-score (GP2D (LARGE INTESTINE)): −0.4
- DNMDP AUC (HCC15 (LUNG)): 6.3861

From US11207320B2, “Compositions and methods for cancer expressing PDE3A or SLFN12” (The Broad Institute, Inc., priority 2015, dated 2021)
